# The list shows a part of the results.
# B1: Cel5A (Cellvibrio mixtus), A0A266Q9Z0 (protein)
# chain: TSVAGCSGVTAWNSTAVYTGGNEVVRNGVKYQAKWWTQGQDPVTNSSADGVWANKGQC
# Experiments:
# Experiment in all cases: glycan array binding signal (z-score within array); higher = stronger binding
# Conditions in all cases: glycan notation: IUPAC condensed, linker removed
# [1] = biological target: Glc(a1-2)Glc
# Outline: (§1)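 Negative Z-scores can be read as non-binding. The Z-score is calculated within each array and then averaged across arrays of one protein sequence at different concentrations or buffers and across linkers. Arrays, 3228 in all, were curated from the Consortium for Functional Glycomics database and kept only where the protein sequence was available.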
# [2] = biological target: Glc(a1-2)Glc(a1-2)Glc
# Outline: as §1
# [3] = biological target: Glc(a1-2)Glc(a1-2)Glc(a1-2)Glc
# Outline: as §1
# [4] = biological target: Glc(a1-2)Glc(a1-2)Glc(a1-2)Glc(a1-2)Glc
# Outline: as §1
# [5] = biological target: Glc(a1-2)Glc(a1-2)Glc(a1-2)Glc(a1-2)Glc(a1-2)Glc
# Outline: as §1
# [6] = biological target: Glc(a1-2)Glc(a1-2)Glc(a1-2)Glc(a1-2)Glc(a1-2)Glc(a1-2)Glc
# Outline: as §1
# [7] = biological target: Glc(a1-2)Glc(a1-2)Glc(a1-2)Glc(a1-2)Glc(a1-2)Glc(a1-2)Glc(a1-2)Glc
# Outline: as §1
# [8] = biological target: Glc(a1-2)Glc(a1-2)Glc(a1-2)Glc(a1-2)Glc(a1-2)Glc(a1-2)Glc(a1-2)Glc(a1-2)Glc
# Outline: as §1
# [9] = biological target: Glc(a1-3)Glc
# Outline: as §1
# [10] = biological target: Glc(a1-3)Glc(a1-3)Glc
# Outline: as §1
# [11] = biological target: Glc(a1-3)Glc(a1-3)Glc(a1-3)Glc
# Outline: as §1
# [12] = biological target: Glc(a1-3)Glc(a1-3)Glc(a1-3)Glc(a1-3)Glc
# Outline: as §1
# [13] = biological target: Glc(a1-3)Glc(a1-3)Glc(a1-3)Glc(a1-3)Glc(a1-3)Glc
# Outline: as §1
# [14] = biological target: Glc(a1-3)Glc(a1-3)Glc(a1-3)Glc(a1-3)Glc(a1-3)Glc(a1-3)Glc
# Outline: as §1
# [15] = biological target: Glc(a1-3)Glc(a1-3)Glc(a1-3)Glc(a1-3)Glc(a1-3)Glc(a1-3)Glc(a1-3)Glc
# Outline: as §1
# [16] = biological target: Glc(a1-3)Glc(a1-3)Glc(a1-3)Glc(a1-3)Glc(a1-3)Glc(a1-3)Glc(a1-3)Glc(a1-3)Glc
# Outline: as §1
# [17] = biological target: Glc(a1-3)Glc(a1-3)Glc(a1-3)Glc(a1-3)Glc(a1-3)Glc(a1-3)Glc(a1-3)Glc(a1-3)Glc(a1-3)Glc
# Outline: as §1
# [18] = biological target: Glc(a1-3)Glc(a1-3)Glc(a1-3)Glc(a1-3)Glc(a1-3)Glc(a1-3)Glc(a1-3)Glc(a1-3)Glc(a1-3)Glc(a1-3)Glc
# Outline: as §1
# [19] = biological target: Glc(a1-3)Glc(a1-3)Glc(a1-3)Glc(a1-3)Glc(a1-3)Glc(a1-3)Glc(a1-3)Glc(a1-3)Glc(a1-3)Glc(a1-3)Glc(a1-3)Glc
# Outline: as §1
# [20] = biological target: Glc(a1-3)Glc(a1-3)Glc(a1-3)Glc(a1-3)Glc(a1-3)Glc(a1-3)Glc(a1-3)Glc(a1-3)Glc(a1-3)Glc(a1-3)Glc(a1-3)Glc(a1-3)Glc
# Outline: as §1
# [21] = biological target: Glc(a1-4)Glc
# Outline: as §1
# [22] = biological target: Glc(a1-4)Glc(a1-4)Glc
# Outline: as §1
# [23] = biological target: Glc(a1-4)Glc(a1-4)Glc(a1-4)Glc
# Outline: as §1
# [24] = biological target: Glc(a1-4)Glc(a1-4)Glc(a1-4)Glc(a1-4)Glc
# Outline: as §1
# [25] = biological target: Glc(a1-4)Glc(a1-4)Glc(a1-4)Glc(a1-4)Glc(a1-4)Glc
# Outline: as §1
# [26] = biological target: Glc(a1-4)Glc(a1-4)Glc(a1-4)Glc(a1-4)Glc(a1-4)Glc(a1-4)Glc
# Outline: as §1
# [27] = biological target: Glc(a1-4)Glc(a1-4)Glc(a1-4)Glc(a1-4)Glc(a1-4)Glc(a1-4)Glc(a1-4)Glc
# Outline: as §1
# [28] = biological target: Glc(a1-4)Glc(a1-4)Glc(a1-4)Glc(a1-4)Glc(a1-4)Glc(a1-4)Glc(a1-4)Glc(a1-4)Glc
# Outline: as §1
# [29] = biological target: Glc(a1-4)Glc(a1-4)Glc(a1-4)Glc(a1-4)Glc(a1-4)Glc(a1-4)Glc(a1-4)Glc(a1-4)Glc(a1-4)Glc
# Outline: as §1
# [30] = biological target: Glc(a1-4)Glc(a1-4)Glc(a1-4)Glc(a1-4)Glc(a1-4)Glc(a1-4)Glc(a1-4)Glc(a1-4)Glc(a1-4)Glc(a1-4)Glc
# Outline: as §1
# [31] = biological target: Glc(a1-4)Glc(a1-4)Glc(a1-4)Glc(a1-4)Glc(a1-4)Glc(a1-4)Glc(a1-4)Glc(a1-4)Glc(a1-4)Glc(a1-4)Glc(a1-4)Glc
# Outline: as §1
# [32] = biological target: Glc(a1-4)Glc(a1-4)Glc(a1-4)Glc(a1-4)Glc(a1-4)Glc(a1-4)Glc(a1-4)Glc(a1-4)Glc(a1-4)Glc(a1-4)Glc(a1-4)Glc(a1-4)Glc
# Outline: as §1
# [33] = biological target: Glc(a1-4)Glc(a1-6)Glc
# Outline: as §1
# [34] = biological target: Glc(a1-6)Glc
# Outline: as §1
# [35] = biological target: Glc(a1-6)Glc(a1-4)Glc
# Outline: as §1
# [36] = biological target: Glc(a1-6)Glc(a1-4)Glc(a1-4)Glc
# Outline: as §1
# [37] = biological target: Glc(a1-6)Glc(a1-4)Glc(a1-4)Glc(a1-6)Glc(a1-4)Glc(a1-4)Glc
# Outline: as §1
# [38] = biological target: Glc(a1-6)Glc(a1-6)Glc
# Outline: as §1
# [39] = biological target: Glc(a1-6)Glc(a1-6)Glc(a1-6)Glc
# Outline: as §1
# [40] = biological target: Glc(a1-6)Glc(a1-6)Glc(a1-6)Glc(a1-6)Glc
# Outline: as §1
# [41] = biological target: Glc(a1-6)Glc(a1-6)Glc(a1-6)Glc(a1-6)Glc(a1-6)Glc
# Outline: as §1
# [42] = biological target: Glc(a1-6)Glc(a1-6)Glc(a1-6)Glc(a1-6)Glc(a1-6)Glc(a1-6)Glc
# Outline: as §1
# [43] = biological target: Glc(a1-6)Glc(a1-6)Glc(a1-6)Glc(a1-6)Glc(a1-6)Glc(a1-6)Glc(a1-6)Glc
# Outline: as §1
# [44] = biological target: Glc(a1-6)Glc(a1-6)Glc(a1-6)Glc(a1-6)Glc(a1-6)Glc(a1-6)Glc(a1-6)Glc(a1-6)Glc
# Outline: as §1
# [45] = biological target: Glc(a1-6)Glc(a1-6)Glc(a1-6)Glc(a1-6)Glc(a1-6)Glc(a1-6)Glc(a1-6)Glc(a1-6)Glc(a1-6)Glc
# Outline: as §1
# [46] = biological target: Glc(a1-6)Glc(a1-6)Glc(a1-6)Glc(a1-6)Glc(a1-6)Glc(a1-6)Glc(a1-6)Glc(a1-6)Glc(a1-6)Glc(a1-6)Glc
# Outline: as §1
# [47] = biological target: Glc(a1-6)Glc(a1-6)Glc(a1-6)Glc(a1-6)Glc(a1-6)Glc(a1-6)Glc(a1-6)Glc(a1-6)Glc(a1-6)Glc(a1-6)Glc(a1-6)Glc
# Outline: as §1
# [48] = biological target: Glc(a1-6)Glc(a1-6)Glc(a1-6)Glc(a1-6)Glc(a1-6)Glc(a1-6)Glc(a1-6)Glc(a1-6)Glc(a1-6)Glc(a1-6)Glc(a1-6)Glc(a1-6)Glc
# Outline: as §1
# [49] = biological target: Glc(b1-2)Glc
# Outline: as §1
# [50] = biological target: Glc(b1-2)Glc(b1-2)Glc
# Outline: as §1
# [51] = biological target: Glc(b1-2)Glc(b1-2)Glc(b1-2)Glc
# Outline: as §1
# [52] = biological target: Glc(b1-2)Glc(b1-2)Glc(b1-2)Glc(b1-2)Glc
# Outline: as §1
# [53] = biological target: Glc(b1-2)Glc(b1-2)Glc(b1-2)Glc(b1-2)Glc(b1-2)Glc
# Outline: as §1
# [54] = biological target: Glc(b1-2)Glc(b1-2)Glc(b1-2)Glc(b1-2)Glc(b1-2)Glc(b1-2)Glc
# Outline: as §1
# [55] = biological target: Glc(b1-2)Glc(b1-2)Glc(b1-2)Glc(b1-2)Glc(b1-2)Glc(b1-2)Glc(b1-2)Glc
# Outline: as §1
# [56] = biological target: Glc(b1-2)Glc(b1-2)Glc(b1-2)Glc(b1-2)Glc(b1-2)Glc(b1-2)Glc(b1-2)Glc(b1-2)Glc
# Outline: as §1
# [57] = biological target: Glc(b1-2)Glc(b1-2)Glc(b1-2)Glc(b1-2)Glc(b1-2)Glc(b1-2)Glc(b1-2)Glc(b1-2)Glc(b1-2)Glc
# Outline: as §1
binder,measurement,setting,value
B1,glycan array binding signal (z-score),[1],-0.981
same,glycan array binding signal (z-score),[2],-0.994
same,glycan array binding signal (z-score),[3],-0.992
same,glycan array binding signal (z-score),[4],-0.985
same,glycan array binding signal (z-score),[5],-0.985
same,glycan array binding signal (z-score),[6],-0.989
same,glycan array binding signal (z-score),[7],-0.986
same,glycan array binding signal (z-score),[8],-0.981
same,glycan array binding signal (z-score),[9],-0.931
same,glycan array binding signal (z-score),[10],-0.977
same,glycan array binding signal (z-score),[11],-0.956
same,glycan array binding signal (z-score),[12],-0.971
same,glycan array binding signal (z-score),[13],-0.941
same,glycan array binding signal (z-score),[14],-0.928
same,glycan array binding signal (z-score),[15],-0.919
same,glycan array binding signal (z-score),[16],-0.914
same,glycan array binding signal (z-score),[17],-0.925
same,glycan array binding signal (z-score),[18],-0.954
same,glycan array binding signal (z-score),[19],-0.946
same,glycan array binding signal (z-score),[20],-0.942
same,glycan array binding signal (z-score),[21],-0.943
same,glycan array binding signal (z-score),[22],-0.961
same,glycan array binding signal (z-score),[23],-0.94
same,glycan array binding signal (z-score),[24],-0.949
same,glycan array binding signal (z-score),[25],-0.945
same,glycan array binding signal (z-score),[26],-0.941
same,glycan array binding signal (z-score),[27],-0.942
same,glycan array binding signal (z-score),[28],-0.95
same,glycan array binding signal (z-score),[29],-0.936
same,glycan array binding signal (z-score),[30],-0.924
same,glycan array binding signal (z-score),[31],-0.938
same,glycan array binding signal (z-score),[32],-0.916
same,glycan array binding signal (z-score),[33],-0.994
same,glycan array binding signal (z-score),[34],-0.913
same,glycan array binding signal (z-score),[35],-0.994
same,glycan array binding signal (z-score),[36],-0.994
same,glycan array binding signal (z-score),[37],-0.994
same,glycan array binding signal (z-score),[38],-0.942
same,glycan array binding signal (z-score),[39],-0.93
same,glycan array binding signal (z-score),[40],-0.943
same,glycan array binding signal (z-score),[41],-0.937
same,glycan array binding signal (z-score),[42],-0.926
same,glycan array binding signal (z-score),[43],-0.928
same,glycan array binding signal (z-score),[44],-0.913
same,glycan array binding signal (z-score),[45],-0.931
same,glycan array binding signal (z-score),[46],-0.864
same,glycan array binding signal (z-score),[47],-0.928
same,glycan array binding signal (z-score),[48],-0.949
same,glycan array binding signal (z-score),[49],-0.411
same,glycan array binding signal (z-score),[50],0.043
same,glycan array binding signal (z-score),[51],0.32
same,glycan array binding signal (z-score),[52],1.16
same,glycan array binding signal (z-score),[53],1.32
same,glycan array binding signal (z-score),[54],0.965
same,glycan array binding signal (z-score),[55],0.862
same,glycan array binding signal (z-score),[56],1.65
same,glycan array binding signal (z-score),[57],1.26

# From the supplement of paper PMC8728848
